The other results are listed elsewhere or left out. Cleavage of a single-stranded DNA pool by Rep nickase domains was read by sequencing (1 h at 37 °C, 3 µM enzyme); the outer parts of the 90-letter strands are left off. Numbers give uncut DNA relative to the enzyme-free pool, as log2; uncut sequences lie near 0, cut ones below; no hit call is given. Because reads are shares of a total, they shift together, so uncut sequences can rise above 0 when many others are cut.
Each sequence was assayed on T1, Rep nickase domain of tomato golden mosaic virus (assay: uncleaved DNA left, log2 of reads against the no-enzyme library (log2 ratio); higher = less cleavage (more negative = more Rep cleavage of the k-mer); sequences stand for … in CTCGTCCG…ACCGGAGA).
T1 sequence (protein, residues 1-124, tag omitted): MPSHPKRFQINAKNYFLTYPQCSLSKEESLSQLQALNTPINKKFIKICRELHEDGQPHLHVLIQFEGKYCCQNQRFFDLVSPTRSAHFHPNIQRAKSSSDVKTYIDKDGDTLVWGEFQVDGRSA
Protocol: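 A pool of 90-nt single-stranded DNAs with seven random bases just before the constant AC of the nick site (name = the seven bases) was cut by 3 µM recombinant His6-SUMO-tagged Rep nickase domain (300 nM DNA, 50 mM HEPES pH 8.0, 50 mM NaCl, 1 mM MnCl2, 1 h, 37 °C, three replicates). Uncut DNA was amplified and sequenced.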

Row | Sequence | uncleaved DNA left (log2)
1 | GGTCAGT | 0.122
2 | CATATGG | -0.0111
3 | TTCATCG | 0.0132
4 | CCCAATG | -0.0699
5 | GGGCGAC | 0.0527
6 | ATGACTT | -0.171
7 | CAGACAC | -0.131
8 | CGAAGTT | -0.0607
9 | GTGGCAA | -0.014
10 | TATTACA | -2.25
11 | ACGTCGA | 0.0089
12 | AGTATTG | 0.0603
13 | TAAGGCT | -0.09
14 | CACGGAG | 0.0359
15 | TACCTAA | -0.103
16 | CCGGTAA | -0.0571
17 | AAGGGAC | 0.0672
18 | CTCCTCT | -0.108
19 | AATTCGA | -0.0517
20 | TAGGACA | 0.0284

Row | Sequence | uncleaved DNA left (log2)
21 | TAGGGGT | 0.0904
22 | GTAGGGC | 0.108
23 | TTGGCCT | -0.0998
24 | GAAGACC | 0.0566
25 | CGGACCG | 0.101
26 | CGATCTG | -0.108
27 | GGCGCGA | 0.149
28 | TAACTTC | -0.335
29 | TTGAATC | -0.0213
30 | GTTCAGG | 0.0738
31 | CCCGGGA | 0.00375
32 | GGCTCTC | -0.226
33 | GGGGTAG | 0.0248
34 | AAACAAA | -0.0029
35 | TGATACA | -0.552
36 | TTATTTG | -0.0667
37 | CTGGGTT | 0.0948
38 | TGTGCTT | -0.0361
39 | GGCCAGT | 0.0545
40 | CAACTAC | -0.093

Reference: the supplement of paper PMC7826260
